Test results published in the supplement of paper PMC4604168 (melanoma cell lines).
The other results are listed elsewhere or left out. Many values rest on one well or one pass, so single values are uncertain.
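Also: cells treated in 1,536-well plates, then fixed and DAPI-stained, with nuclei counted from automated high-throughput microscope images.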

The compounds below were run on UACC257 (assay: cell count relative to DMSO control; melanoma cells; higher = more viable cells). Details: library dose: standard library concentration; 72 h.
`CC1(C)CCC(c2ccc(Cl)cc2)=C(CN2CCN(c3ccc(C(=O)NS(=O)(=O)c4ccc(N[C@H](CCN5CCOCC5)CSc5ccccc5)c(S(=O)(=O)C(F)(F)F)c4)cc3)CC2)C1` + NCC(=O)Nc1ccc(-n2nc(C(F)(F)F)cc2-c2ccc3c(ccc4ccccc43)c2)cc1 [OSU03012] (first compound 2 µM, partner dose 5 µM) showed a cell count of 21.7%. `CC1(C)CCC(c2ccc(Cl)cc2)=C(CN2CCN(c3ccc(C(=O)NS(=O)(=O)c4ccc(N[C@H](CCN5CCOCC5)CSc5ccccc5)c(S(=O)(=O)C(F)(F)F)c4)cc3)CC2)C1` + Cc1cc(Nc2cc(N3CCN(C)CC3)nc(/C=C/c3ccccc3)n2)n[nH]1 [ENMD2076] (first compound 2 µM, partner dose 0.2 µM) was tested, and the cell count was 37.4%. Work on `Cc1ccc(Nc2nccc(N(C)c3ccc4c(C)n(C)nc4c3)n2)cc1S(N)(=O)=O` [Pazopanib] + c1cc(-c2cnn3cc(-c4ccc(OCCN5CCCCC5)cc4)cnc23)ccn1 [Dorsomorphin] (first compound 2 µM, partner dose 2 µM) yielded a cell count of 76.6%. `CC1(C)CCC(c2ccc(Cl)cc2)=C(CN2CCN(c3ccc(C(=O)NS(=O)(=O)c4ccc(N[C@H](CCN5CCOCC5)CSc5ccccc5)c(S(=O)(=O)C(F)(F)F)c4)cc3)CC2)C1` + CCc1ccc(CCOc2ccc(CC3SC(=O)NC3=O)cc2)nc1 [pioglitazone] (first compound 2 µM, partner dose 10 µM) showed a cell count of 35.3%. `Cc1ccc(Nc2nccc(N(C)c3ccc4c(C)n(C)nc4c3)n2)cc1S(N)(=O)=O` [Pazopanib] + COC(=O)c1sccc1S(=O)(=O)Nc1ccc(Nc2ccccc2)cc1OC [GSK0660] (first compound 2 µM, partner dose 5 µM) showed a cell count of 77%. `Cc1ccc(Nc2nccc(N(C)c3ccc4c(C)n(C)nc4c3)n2)cc1S(N)(=O)=O` [Pazopanib] + C#Cc1cccc(Nc2ncnc3cc(OCCOC)c(OCCOC)cc23)c1 [erlotinib] (first compound 2 µM, partner dose 4 µM) was tested, and the cell count was 79.1%. With `O=C(/C=C/c1cccnc1)NCCCCC1CCN(C(=O)c2ccccc2)CC1` + CN(NC(=O)CC(=O)NN(C)C(=S)c1ccccc1)C(=S)c1ccccc1 [STA4783] (first compound 0.05 µM, partner dose 0.03 µM) the cell count was 113%. `CC1(C)CCC(c2ccc(Cl)cc2)=C(CN2CCN(c3ccc(C(=O)NS(=O)(=O)c4ccc(N[C@H](CCN5CCOCC5)CSc5ccccc5)c(S(=O)(=O)C(F)(F)F)c4)cc3)CC2)C1` + O=C(O)C(=O)Nc1sc2c(c1C(=O)O)CCNC2 [TCS401] (first compound 2 µM, partner dose 8.33333 µM) gave a cell count of 44.6%. With `Cc1ccc(Nc2nccc(N(C)c3ccc4c(C)n(C)nc4c3)n2)cc1S(N)(=O)=O` [Pazopanib] + O=S(=O)(c1ccccc1)N(CC(F)(F)F)c1ccc(C(O)(C(F)(F)F)C(F)(F)F)cc1 [T0901317] (first compound 2 µM, partner dose 7 µM) the cell count was 77.8%. `O=C(/C=C/c1cccnc1)NCCCCC1CCN(C(=O)c2ccccc2)CC1` + COc1ccc(COc2ccc(Cc3cnc(N)nc3N)cc2OC)cc1 [GW2580] (first compound 0.05 µM, partner dose 5 µM) showed a cell count of 84.1%. `Cc1ccc(Nc2nccc(N(C)c3ccc4c(C)n(C)nc4c3)n2)cc1S(N)(=O)=O` [Pazopanib] + CCCCCCCCCCCC1=C(O)C(=O)C=C(O)C1=O [Embelin] (first compound 2 µM, partner dose 6 µM) showed a cell count of 88.6%. `Cc1ccc(Nc2nccc(N(C)c3ccc4c(C)n(C)nc4c3)n2)cc1S(N)(=O)=O` [Pazopanib] + O=c1cc(-c2cccc3c2Sc2ccccc2S3)oc(N2CCOCC2)c1 [KU55933] (first compound 2 µM, partner dose 5 µM) was tested, and the cell count was 73.6%. Compound `O=C(/C=C/c1cccnc1)NCCCCC1CCN(C(=O)c2ccccc2)CC1` + O=C(Nc1cccc(Cl)c1)Nc1ncc(CCNc2ncnc3ccsc23)s1 [SNS314] (first compound 0.05 µM, partner dose 0.004 µM) has a cell count of 81.4%. Work on `O=C(/C=C/c1cccnc1)NCCCCC1CCN(C(=O)c2ccccc2)CC1` + COc1cc(N2CCC(N3CCN(C)CC3)CC2)ccc1Nc1ncc(Cl)c(Nc2ccccc2S(=O)(=O)C(C)C)n1 [NVP-TAE684] (first compound 0.05 µM, partner dose 0.4 µM) yielded a cell count of 83.6%. Work on `Cc1ccc(Nc2nccc(N(C)c3ccc4c(C)n(C)nc4c3)n2)cc1S(N)(=O)=O` [Pazopanib] + COc1cc2ncnc(Nc3ccc(Oc4ccccc4)cc3)c2cc1OC [SrcI1] (first compound 2 µM, partner dose 10 µM) yielded a cell count of 80.6%. For `Cc1ccc(Nc2nccc(N(C)c3ccc4c(C)n(C)nc4c3)n2)cc1S(N)(=O)=O` [Pazopanib] + OCCn1cc(-c2cnc3nnn(Cc4ccc5ncccc5c4)c3n2)cn1 [PF04217903] (first compound 2 µM, partner dose 5 µM), the cell count was 89.1%. In the case of `Cc1ccc(Nc2nccc(N(C)c3ccc4c(C)n(C)nc4c3)n2)cc1S(N)(=O)=O` [Pazopanib] + Cn1cc(/C=C2\C(=O)Nc3cccnc32)c2ccccc21 [GW441756] (first compound 2 µM, partner dose 2 µM), the cell count is reported as 78.7%. `Cc1ccc(Nc2nccc(N(C)c3ccc4c(C)n(C)nc4c3)n2)cc1S(N)(=O)=O` [Pazopanib] + OCc1c[nH]c2ccccc12 [Indole-3-carbinol] (first compound 2 µM, partner dose 4 µM) showed a cell count of 100%. `CC1(C)CCC(c2ccc(Cl)cc2)=C(CN2CCN(c3ccc(C(=O)NS(=O)(=O)c4ccc(N[C@H](CCN5CCOCC5)CSc5ccccc5)c(S(=O)(=O)C(F)(F)F)c4)cc3)CC2)C1` + COc1cc2c(Oc3ccc4[nH]c(C)cc4c3F)ncnc2cc1OCCCN1CCCC1 [cediranib] (first compound 2 µM, partner dose 2 µM) showed a cell count of 38.4%. For `CC1(C)CCC(c2ccc(Cl)cc2)=C(CN2CCN(c3ccc(C(=O)NS(=O)(=O)c4ccc(N[C@H](CCN5CCOCC5)CSc5ccccc5)c(S(=O)(=O)C(F)(F)F)c4)cc3)CC2)C1` + COc1cc(N2CCC(N3CCN(C)CC3)CC2)ccc1Nc1ncc(Cl)c(Nc2ccccc2S(=O)(=O)C(C)C)n1 [NVP-TAE684] (first compound 2 µM, partner dose 0.4 µM), the cell count was 20.8%. Work on `CC1(C)CCC(c2ccc(Cl)cc2)=C(CN2CCN(c3ccc(C(=O)NS(=O)(=O)c4ccc(N[C@H](CCN5CCOCC5)CSc5ccccc5)c(S(=O)(=O)C(F)(F)F)c4)cc3)CC2)C1` + Cn1cc(/C=C2\C(=O)Nc3cccnc32)c2ccccc21 [GW441756] (first compound 2 µM, partner dose 2 µM) yielded a cell count of 48.1%. For `O=C(/C=C/c1cccnc1)NCCCCC1CCN(C(=O)c2ccccc2)CC1` + COc1cc2ncnc(Nc3ccc(Oc4ccccc4)cc3)c2cc1OC [SrcI1] (first compound 0.05 µM, partner dose 10 µM), the cell count was 79%. For `O=C(/C=C/c1cccnc1)NCCCCC1CCN(C(=O)c2ccccc2)CC1` + O=S(=O)(c1ccccc1)N(CC(F)(F)F)c1ccc(C(O)(C(F)(F)F)C(F)(F)F)cc1 [T0901317] (first compound 0.05 µM, partner dose 7 µM), the cell count was 79.5%. `CC1(C)CCC(c2ccc(Cl)cc2)=C(CN2CCN(c3ccc(C(=O)NS(=O)(=O)c4ccc(N[C@H](CCN5CCOCC5)CSc5ccccc5)c(S(=O)(=O)C(F)(F)F)c4)cc3)CC2)C1` + COC(=O)c1sccc1S(=O)(=O)Nc1ccc(Nc2ccccc2)cc1OC [GSK0660] (first compound 2 µM, partner dose 5 µM) showed a cell count of 34.2%. For `CC1(C)CCC(c2ccc(Cl)cc2)=C(CN2CCN(c3ccc(C(=O)NS(=O)(=O)c4ccc(N[C@H](CCN5CCOCC5)CSc5ccccc5)c(S(=O)(=O)C(F)(F)F)c4)cc3)CC2)C1` + c1cc(-c2cnn3cc(-c4ccc(OCCN5CCCCC5)cc4)cnc23)ccn1 [Dorsomorphin] (first compound 2 µM, partner dose 2 µM), the cell count was 20.1%. `Cc1ccc(Nc2nccc(N(C)c3ccc4c(C)n(C)nc4c3)n2)cc1S(N)(=O)=O` [Pazopanib] + CO[C@@H]1[C@H](N(C)C(=O)c2ccccc2)C[C@H]2O[C@]1(C)n1c3ccccc3c3c4c(c5c6ccccc6n2c5c31)C(=O)NC4 [Midostaurin] (first compound 2 µM, partner dose 0.4 µM) gave a cell count of 64.7%. Compound `O=C(/C=C/c1cccnc1)NCCCCC1CCN(C(=O)c2ccccc2)CC1` + CO[C@@H]1[C@H](N(C)C(=O)c2ccccc2)C[C@H]2O[C@]1(C)n1c3ccccc3c3c4c(c5c6ccccc6n2c5c31)C(=O)NC4 [Midostaurin] (first compound 0.05 µM, partner dose 0.4 µM) has a cell count of 72.4%. With `Cc1ccc(Nc2nccc(N(C)c3ccc4c(C)n(C)nc4c3)n2)cc1S(N)(=O)=O` [Pazopanib] + Oc1nc(-c2ccc(C(F)(F)F)cc2)nc2c1CSCC2 [XAV939] (first compound 2 µM, partner dose 10 µM) the cell count was 76.6%. `CC1(C)CCC(c2ccc(Cl)cc2)=C(CN2CCN(c3ccc(C(=O)NS(=O)(=O)c4ccc(N[C@H](CCN5CCOCC5)CSc5ccccc5)c(S(=O)(=O)C(F)(F)F)c4)cc3)CC2)C1` + Cc1ccc(Nc2nccc(N(C)c3ccc4c(C)n(C)nc4c3)n2)cc1S(N)(=O)=O [Pazopanib] (first compound 2 µM, partner dose 2 µM) gave a cell count of 37.7%.
